Test results reported in publication PMC10726135.
The other results are listed elsewhere or left out. At the low end of the ranking the order means little. The protein was read in a cell extract, so binding may be indirect.

Biological target: T1, HNF4alpha2 (COS-7 nuclear extract) (UniProt P41235)
T1 sequence: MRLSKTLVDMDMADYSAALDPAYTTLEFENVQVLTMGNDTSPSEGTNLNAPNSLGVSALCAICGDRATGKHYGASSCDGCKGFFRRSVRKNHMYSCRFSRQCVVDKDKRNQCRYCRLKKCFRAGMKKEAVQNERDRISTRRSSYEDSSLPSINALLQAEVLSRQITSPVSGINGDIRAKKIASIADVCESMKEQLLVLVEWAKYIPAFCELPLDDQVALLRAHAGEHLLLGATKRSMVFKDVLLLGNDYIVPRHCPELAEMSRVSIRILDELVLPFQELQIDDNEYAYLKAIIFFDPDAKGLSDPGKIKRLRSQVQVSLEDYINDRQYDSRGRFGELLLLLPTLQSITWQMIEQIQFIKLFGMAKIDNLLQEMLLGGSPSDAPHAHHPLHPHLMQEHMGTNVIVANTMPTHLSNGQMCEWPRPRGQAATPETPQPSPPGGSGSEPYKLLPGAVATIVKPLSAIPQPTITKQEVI
Assay: protein-binding microarray
Details: COS-7 nuclear extract on double-stranded Agilent 4x180k PBM; binding buffer, salt, pH and temperature not given; high values mean tight binding; double strand, one strand shown; sequences stand for … in …GCCTAGGGAGATTAGAGTATCGGTCGA

Row | Sequence | binding signal (log2 normalized intensity)
1 | GTGACTTCCTTCCAAAGGTCACAGTAGGGA | 4.16
2 | TGTTTGCTTTTCTTATTTACCGAAATGTGG | 2.1
3 | AGGTGACCCTTGAGCTAAGTCCCAAGGGAT | 1.06
4 | GTTATTTGCTAAAACTGGGCTGGGTAAGCC | -0.373
5 | GAGAGAAAAAATCAGAGAGCAAAGGTGATC | 1.63
6 | TACATTTTGCTCTGTTGTGTCAAAGGTCAC | 6.29
7 | TGAAGAAACCAACCCTGCCAAAGGTTAAAA | 1.64
8 | TGGTACTTTGAGCCAGTAAGTCTAGGGGTG | 0.988
9 | ATGTGCCCTTTGTACCTGGGGCAAACATCA | 4.38
10 | CATCCCTCTCCCGCCTCTTGGCCTCCCCCT | 6.01
11 | AAAGGTCAAGAGAATTACAAACAGCCCTGA | -1.04
12 | GCGCAGGCGCAGTCCTCTCTCGCGAGAGCC | -1.17
13 | TGGAATGTCTTTGGGTGGAGGGGAGGTTAT | 1.1
14 | GTATTTTTTGAATGACAGTGTCAGGACCTT | 1.49
15 | GGCTGAGCATCACCAGTGCAGCTGACCTAC | 1.4
16 | AATGTTTGTAGGGACTTTGACCCCTAAAAC | 8.73
17 | TCACAACCTCCCTTTGAAGGAGCCACTGGT | -1.06
18 | AGTGTGGGGTGACTGACTTAACCCTTGCCT | 1.84
19 | ACATTCTTCCTCACATCTCTTCCTTGCTTT | 0.646
20 | TCTTCCTTCATCTGGAGACAAATGCTTTTG | 0.903
21 | ATCCAGCACAGTGCTGGTACATAGCAGGGG | -0.563
22 | TGAACAGCTCTTCTTGCCAGCTGGCCTCCT | -0.861
23 | CAGTCCATTTCAGTGAACTTTTCAATGCTC | 0.555
24 | GATTTTTAGAGCTGGGGCACAATGCTGCAA | -1.17
25 | CATTAATTAACCTTTGAGCTGGGTGGCCCT | 3.3

Row | Sequence | binding signal (log2 normalized intensity)
26 | AGAGCACAGGATCCAGAGGTCACCCAGAGC | 1.32
27 | TTATCTTGATGGTTAAAGTCCAATCTTCTG | 4.1
28 | AGCTGGAGGAGACCTTTGGATATCATATCA | 1.95
29 | CTATCACTGTCTAGCTGTGTAACCCTGGAC | 1.48
30 | TCACCATATCCCTGAGAGGCCAGTTTGACC | 2.83
31 | TGGACTTTGATCCTGATGACTGCAGAGCTT | 5.26
32 | GTAACCACCTCTCTGGGTGGTTCGAGACCC | 0.708
33 | GCCGTTGGACCAAGCTCTAGCATCCCTCTC | -1.2
34 | ACCTTTGCTCACGTTTTCCTGCTGACCCTC | 3.43
35 | AATGTTTCAAAGTTTTTCCCCTTGGTGGAT | 1.86
36 | ATTTGATAAGATGTGTAAAACACAAATCTC | -1.04
37 | GACATGATCAAAGTTCATTGTAGCCTCAAA | 3.16
38 | GTAGGGCCAATCTCTGGCATGTATTTATCA | 0.384
39 | CACAAAGGTGCAAAGTACATATTTACTTAC | 3.46
40 | AAAGAGATTGGACTTTGGCCTGTGAATCCA | 8.37
41 | GTCCCAAGCATCTCTGAGCAGTGAATGTTG | -0.97
42 | GGGCAATGACCTGGACAGGTCCAAGGTTCT | 1.7
43 | AGAGACTAGTATGTAAATAAGAGCTTTGCA | -0.887
44 | CCCACAATCAGTCTGATTGGTTGCAGAAGG | 1.06
45 | AGCAGCTTGAGGCTCCGATAAACCCAGGCA | -1.24
46 | GCTTTTGCACTTTACTCAGAAAGGTCAGCG | 2.81
47 | AGAAATTGCGCTAACCAGATGGTAGATGGG | 0.522
48 | CTGACTAGGACAGAGCAGATGAAAGTAGTT | -0.684
49 | GAAGCCCAGCAGCTCCAGGAGACGTAGAGA | -1.22
50 | CTCTGTGAAGTGGAGATAATAGGAGATAAT | 0.0446

Row | Sequence | binding signal (log2 normalized intensity)
51 | GAATTTCATTTTGCTCTTTGTTCAGATACA | 1.33
52 | CTGCACTTTTGTGCTCTGTACCCGGCTGCC | 1.13
53 | GGGCTGGGGGCAGGGCTGGTCGGATGGCCG | -0.96
54 | TCCCTCATTAGTAACTCCAGAGATAAGATA | 0.0683
55 | ATGGAAGTTTGCCCTGGTTGAGGAATTTGG | 1.62
56 | GATTACATGGGAGATAGAGCAGTGGAAGAC | -1.01
57 | TATTACTAAGTGAGAAAAGAACCATGAGAG | -0.566
58 | TTAAAGACCAAAGATCACAGTGAAGGTGAA | 0.86
59 | TGTGAACCCAGGCAAAGTCCAGAAATAGCA | 1.4
60 | TTGATTCCATGCTGATAATGGAATTGACAT | 0.927
61 | AGAGAAGTTGATTGCACCCTTCCCTAAGAT | 0.293
62 | AGATCTCAGTTGGTCCAAGGTACATGTCTC | 2.34
63 | AAAGCCCTTTTTGGAATGTGTTTGCATGAC | 1.63
64 | GAATCAAAGGTCAGGAATCGCATTGCAAAA | 1.13
65 | AGCGGAAAGAAAGGCCTTTCATACGTTTAA | -1.02
66 | AGGGTCAGTTTGAAATTAGGCAATATGAGT | 1.1
67 | TACCTCTGATCACTACAAGCTTTGAAGGCA | -1.11
68 | ACTGGTGGTTTCACAATTAAGCCAAACTTG | -1.18
69 | CTCTTTTCTTTGTACCGTATTTCAGACCAC | 2.19
70 | TTTACTGAGACTTAACAGTCACTCATGAGC | -1.1
71 | GTCAGATGGCCAAAGTCAACATTGATGGGG | -0.071
72 | GAGTGACCTGGTATTGCAAGTATTTCACCC | 1.57
73 | CACTGTGCTCTGAAAAGTGAACTGTCTGCT | 0.113
74 | TCAGGAGTGATGCCAGAAGATTAGTGATGG | -0.625
75 | CTCCAGATCAAAGGTCAAACAGTGCACTGA | 5.4

Row | Sequence | binding signal (log2 normalized intensity)
76 | TGCAAGACCTCAGCCCTCAGGGGCCTTCAG | -0.862
77 | ACTCAAAGAAAAGTTATGTTGGGCAACTAC | -0.192
78 | CAGCCACTTTTAAAAGGTAACATCAAAGCC | -0.841
79 | GGGGTTAACGTCCAAAGGTAATGGTCTCTC | 2.04
80 | GCAAGGATGGGGGCAAAGGTTGACACCTAG | 4.18
81 | TCTCACTCACCCTAAGCCCTGCTCAGGGAA | -1.01
82 | ACATGGTCCAGTCACAGCAAAAGTAGCCTG | -0.698
83 | ATTATCCCCCTATCCCAAGACATCAATTAA | 3.88
84 | ATCCCACCAAAACCAAGATAGTGACGGAGG | -1.23
85 | TGTTTGCAAGTCGAGCAAGGTTCAGCACAT | 0.65
86 | GAATTCCATCCCAGGTCCACAGTGCACATT | 1.25
87 | GTGGGTTTAAGTAAGCCCCCTTCCCCCCTG | 5.21
88 | ACAGGGATTACGATCCTGCCCTTCTGACCT | 5.19
89 | CATTCTCAGCTGCCACTGGAAGCTCTTCTG | -1.11
90 | ACAACCTTCTGAGATGGAGCATGATGAAAT | -0.0203
91 | TACCTATGCCTTGTCTAGTTAAGTGTTCAG | 1.59
92 | CTTTCAAACAAAAGCTGCTTCTGTAAAACT | -0.835
93 | TTTAAGAGCTCTGTGTCAAAAATCAGGGAC | -0.28
94 | CAATCAGCCTTAGGTATGCCCCATGGTAAG | 1.68
95 | GGCTTGCAAGACTGCATTCCCTAGATGTCG | -0.552
96 | AAAACCATTGCAAATTGGATGTTGAACCTC | 3.66
97 | AGAGATAAGGTCTTCTACAGTCCAAAGGGC | 5.44
98 | TCCAGAAAAGACCAAAAAGGCTAACTTACC | -0.941
99 | GAGCAGCTCTGTATTGAGATAAGCAAGACT | -1.13
100 | TGTTGCAAGCAATGGAGAGGATTTTGGAAT | 0.279

Row | Sequence | binding signal (log2 normalized intensity)
101 | TAGCACCTTCCAGCAGCAGGCCTGGGGGCA | -0.985
102 | GTCCTGCTGGTTTGCCATTTGGAGAGAGTT | 1.37
103 | TTTGCCAAAGCATAGCAAGAGTGACCTTTG | 6.6
104 | ATTCTCCAGTCCGAAGGTCCACCCGTCCGC | 2.2
105 | ATTCCCCGACTCCTGGGTGTGAGATAAGGC | 0.414
106 | GCAGGAGGAGGAGCCAGTGAAGACTGAAAA | -1.2
107 | TGCCTTTCCCTTATCAGGACTTTGTGATTA | 2.79
108 | GCCATTTCGGCACCTTCTACACAGCACCCC | 2.98
109 | CAGCACCACCTGCTGGTCAGGAGACTGCTC | -1.1
110 | ATTAGCTTCCCGGCTGTCACAGCCTGGTTC | -1.17
111 | CCTGGGAGGCAGGACCTTGGGAAAGGAGAA | -1
112 | GGAGATAGCCTCTGGGCTGGCTTTAGCTCA | -1.08
113 | AGTAAACAGGGCTGGGATAACCGAGGCTGA | -1.1
114 | TGAACTGATTAGAACATTAAGTCCAAATGC | 1.04
115 | CATGCTGATGGCAAACACCTGGCCAGCGAC | -1.01
116 | GGGTAATAAATAAAGCCCTGGGGTAATAAA | -1.2
117 | CTGGTTGGAATTCCAGTGTTCACATCTGAT | 1.08
118 | GGAGGAAGCAGCGATGGAAGGGATGGGGTG | -1.21
119 | CTCTCTGGACTTCGGACATTCCAGGGAACA | 3.7
120 | GAACCAGAGAAGATTCCAGAGGGAGGGAGG | -1.01
121 | GACTACCAGCCAGTAGGAGTTGGAACGGGG | -1.14
122 | ACATTAAGACCACCTCTATGCACACGTTCA | -1.1
123 | CCTGCTGCACAACGACCCTTGCTCTGTTTT | 2.86
124 | ACACAGACTCCAAAGAATGGAAGGCAGTGT | -0.799
125 | CCCCATATCCAGTCAATCCCGTGGACTTTG | 5.35

Row | Sequence | binding signal (log2 normalized intensity)
126 | GGGTCAGTTTATCGAAAATCCCCCACCATT | 4.17
127 | ACCGTAAAGCCACCCCTTTCTCCTCTCTTT | 1.51
128 | TCATCTGGGCTTTAGGTTTGGTGTTTAATT | 1.72
129 | TGCGTGTACTAAGGTCTTAAGTGTCATTAG | 1.58
130 | TTTTTTTTTTTTTTTGAGATGGAATCTTGC | 0.979
131 | AATCTTGATAGTAGAGCTTATCAAGGCAAC | -0.748
132 | GGCGGACAGCGCCGCCACCCGGTTGGCGCC | -0.85
133 | CTTTTGGCTCCCTGGGGTTAAAATGTTTAC | 1.77
134 | TTTCAAGAACAAACAAATTTAGCAAGACTG | -1.13
135 | GACTTTTTGTAGTTTCAGCTTCTTCCTTGA | 1.22
136 | TCTGAATAGAACTCAGGAAAGATCAGCTGA | -1.21
137 | AGAGTTCCTGACAATTGGCCAAAGTTCAGT | 4.04
138 | CAGCAGATAAGGGCAGAGAGGCTGCCATCC | -1.12
139 | GCCTGTTCACATTCCAGTGTTTCAAAGGAG | -0.114
140 | TCCAGTGGACATTGGCCCTTTGACCTTTAA | 7.47
141 | TCTTATCAGCCATCTCCCCAGGGAGGCCTG | -0.817
142 | GCCCCCAGAGGTTCTAGCCCTGGTGAGTCA | 1.24
143 | AAATTCCAACAGTTGAGAATTCCAGAGATG | -1.19
144 | CTTTAGGACTTTGAACCTTGGGTCTGTAAT | 6.04
145 | ACTTTGAGGTGTTCTCTGGGGTTAGCCAAA | 1.59
